Experimental data: the supplement of paper PMC3334620
Over roughly 33,000 sequences, “E-score (-0.5 to 0.5)” has its median near -0.041; the highest 2% begin near 0.37. The list shows a part of the results.

target: T1, Ecm22 (UniProt Q05958); assay: PBM E-score (8-mer binding enrichment) (E-score (-0.5 to 0.5)); higher = stronger / more preferred TF binding; most listed sequences are background and not binding sites; conditions: protein concentration: 200 nM; construct: GST-full length
T1 sequence: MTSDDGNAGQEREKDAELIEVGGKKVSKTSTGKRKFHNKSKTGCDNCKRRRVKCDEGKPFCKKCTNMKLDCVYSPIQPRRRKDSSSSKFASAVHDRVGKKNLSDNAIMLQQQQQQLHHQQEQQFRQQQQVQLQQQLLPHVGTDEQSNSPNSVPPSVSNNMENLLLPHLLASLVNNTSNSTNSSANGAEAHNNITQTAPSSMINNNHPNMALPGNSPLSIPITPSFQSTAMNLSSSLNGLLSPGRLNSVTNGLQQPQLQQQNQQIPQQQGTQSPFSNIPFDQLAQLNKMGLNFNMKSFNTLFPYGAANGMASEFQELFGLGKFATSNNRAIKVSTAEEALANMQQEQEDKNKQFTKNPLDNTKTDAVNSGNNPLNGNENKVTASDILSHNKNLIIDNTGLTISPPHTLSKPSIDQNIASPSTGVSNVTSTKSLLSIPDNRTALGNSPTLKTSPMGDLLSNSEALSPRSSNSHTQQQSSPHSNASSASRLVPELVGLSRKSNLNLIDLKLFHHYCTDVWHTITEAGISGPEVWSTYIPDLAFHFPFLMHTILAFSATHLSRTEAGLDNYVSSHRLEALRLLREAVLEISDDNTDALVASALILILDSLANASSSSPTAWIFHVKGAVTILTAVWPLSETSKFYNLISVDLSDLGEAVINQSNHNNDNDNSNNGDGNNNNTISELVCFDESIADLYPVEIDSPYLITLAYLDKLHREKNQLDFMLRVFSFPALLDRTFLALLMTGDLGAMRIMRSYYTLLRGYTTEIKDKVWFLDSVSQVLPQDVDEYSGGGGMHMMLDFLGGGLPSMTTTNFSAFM
In short: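 Detection of bound protein used fluorescent anti-GST, with scans normalised by masliner. The proteins were GST-tagged yeast transcription factors applied at about 100-200 nM to universal all-10-mer Agilent arrays made double-stranded by primer extension. Each ungapped eight-base word, pooled with its reverse complement, was scored with an E-score from the Universal PBM Analysis Suite.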

Row | Sequence | PBM E-score
1 | AAAGCGTG | -0.0715
2 | AGGGCGAA | -0.15
3 | CCAGCCCA | -0.293
4 | CCTGAGGC | -0.211
5 | GGGAAACA | 0.00879
6 | CCGAACGA | 0.357
7 | AGCCCGCG | 0.0591
8 | AATGTATG | -0.0417
9 | ATTTTTTA | 0.121
10 | GATCGCCA | -0.06
11 | TGTCGGAA | 0.105
12 | CATCCATG | -0.12
13 | GACCGGAA | 0.0512
14 | CGGAATAC | 0.241
15 | ACACTCTA | 0.0288
16 | CATCCTAG | -0.125
17 | AGGAAGAG | -0.186
18 | AGGTCTCA | -0.23
19 | ATCGTACA | 0.465
20 | ACCCGTCT | -0.0476
21 | TACTAAAA | 0.213
22 | TCCTCACA | -0.197
23 | ACGGAGAG | 0.125
24 | GAGAGTGA | 0.00324

Row | Sequence | PBM E-score
25 | AAATGTCA | -0.107
26 | GACACCTC | 0.148
27 | CACTCTTA | -0.121
28 | ACTCCAGA | -0.0461
29 | GCCCGGGC | -0.181
30 | GCGTGTCA | -0.17
31 | CTTGAAAC | 0.0867
32 | ACTAGTAG | -0.0744
33 | AGAACGAT | 0.342
34 | CTTCGACA | -0.0624
35 | ATGCGCAC | -0.048
36 | CTTAGAGC | -0.0805
37 | AGCTTCCA | -0.206
38 | ACAGAGGT | -0.125
39 | AGCGATAA | 0.132
40 | GGGTGGTA | 0.0605
41 | CGTTGAAC | 0.207
42 | ACAGGCCT | -0.314
43 | CGTAACAC | 0.289
44 | GCTTCCGA | 0.0694
45 | CTCTGTAA | 0.0371
46 | ATATGGTG | -0.0638
47 | CCAACTTC | -0.0473
48 | GACCAGTA | -0.0962

Row | Sequence | PBM E-score
49 | ACCCCCAG | -0.109
50 | GTGAATTA | -0.199
51 | CCATCCAA | -0.19
52 | CATTCGGA | 0.226
53 | CGGGGTAA | -0.0415
54 | ACAATTTC | 0.086
55 | ATCTGCCG | 0.0109
56 | CCACACGC | 0.0055
57 | GACCACGC | 0.0412
58 | TCTCGCCA | 0.141
59 | CGTGCTAC | -0.188
60 | ACCTGGTC | 0.00669
61 | CAAGTAAA | 0.0478
62 | CGTTGTTC | 0.205
63 | CTGGTAGA | -0.228
64 | GCTTGGAA | 0.0473
65 | AGGTAATG | -0.111
66 | AATTTAAA | -0.00236
67 | ACGACCAA | 0.371
68 | CTCGTGAC | 0.166
69 | CCTGGCCG | -0.124
70 | ACACTTCG | 0.0297
71 | GGACCTAC | 0.111
72 | CACAGAGG | -0.288

Row | Sequence | PBM E-score
73 | CCTATGCA | -0.252
74 | AAATTTCT | 0.026
75 | GCTAGGAA | -0.201
76 | AGTGCTCG | 0.271
77 | CCTACGCG | 0.0452
78 | CCAACAGA | -0.0688
79 | CAGAAAAA | -0.0648
80 | CACCTACC | -0.245
81 | ACACCGCT | -0.0892
82 | AGCGGGGA | -0.118
83 | CGGGTTTA | 0.086
84 | GGGCTAAA | -0.0448
85 | ATCTCGAG | -0.0735
86 | CATTCTAG | -0.363
87 | ACACGTAC | 0.281
88 | AGAGGCGA | -0.00468
89 | CAACGGTC | 0.0501
90 | AGAGGCAA | -0.203
91 | GGAGGCCA | -0.249
92 | GAGCAATC | -0.00427
93 | ACCTTCTA | -0.109
94 | GCCCCATA | -0.176
